In PubChem BioAssay AID686979 (National Center for Advancing Translational Sciences (NCATS), 2013):
Several values for one entry are separate records, joined by “and”; a condition that tells them apart may be missing. Equal values may be shown once. The campaign covered roughly 420,000 compounds. About 50,000 (12%) were called active. Inconclusive results, whose numbers are uncertain, are shown with a selection of clear calls. Calls follow the shape of the dose curve; as a rule, active = well fitted inhibition curve with a large enough effect; inconclusive = small, poorly fitted or top-dose-only effect; inactive = flat fitted curve, though single readings scatter. Where the call is inconclusive, the potency comes from a doubtful curve fit.

experiment: qHTS for Inhibitors of human tyrosyl-DNA phosphodiesterase 1 (TDP1): qHTS in cells in presence of CPT; settings: chicken DT40 Tdp1-/-;hTDP1 cells + 20 nM CPT, ATP luminescence, 48 h; activity change, negative = growth inhibition: at 46.2 µM (top of the series) unless noted; also: nearly all actives have a fitted effect of over 55% in size
How it was run: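 Cell growth measured by CellTiter-Glo luminescence after a minimum 48 h, 37 C compound exposure with 20 nM CPT in Tdp1-knockout DT40 cells stably expressing hTDP1, seeded 400/well; qHTS titration format.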
% is scaled to controls: 0 for no effect and ±100 for the full control effect; potency is read from the fitted curve at half-maximal effect; tags tell the direction and shape of the fitted curve.

| Compound | Potency | activity change, negative = growth inhibition |
| --- | --- | --- |
| CCCn1c(O)c(N=NC(=O)CNC(=O)/C=C/c2ccc(OC)cc2)c2ccccc21 | inconclusive: 20.6 µM [inhibitor, single point] |  |
| Cc1ccc(S(=O)(=O)Nc2cc3c(cc2N2CCOCC2)n(C)c(=O)n3C)c(C)c1 | inconclusive: 29.1 µM [inhibitor, single point] |  |
| Cc1ccc(Nc2nc(C(=O)NCc3ccco3)cs2)cc1 | inconclusive: 16.4 µM [inhibitor, single point] |  |
| CCCCCNC(=O)C(=O)NCC(c1ccc2c(c1)OCO2)N1CCOCC1 (centres undefined) | inactive |  |
| Cc1coc2c(C)c3oc(=O)c(CCC(=O)NCCCn4ccnc4)c(C)c3cc12 | inconclusive: 29.1 µM [inhibitor, single point] |  |
| COc1cc(OC)cc(-c2cc3ccccc3c(=O)o2)c1 | inconclusive: 25.9 µM [inhibitor, single point] |  |
| CCN(CC)CCNC(=O)c1ccc(NC(=O)c2cccc(S(=O)(=O)N3CCc4ccccc43)c2)cc1 | inconclusive: 29.1 µM [inhibitor, single point] |  |
| Cc1ccc(CSc2nc(=O)c3c(n2C)NC(=O)CC3c2ccc(OC(C)C)cc2)cc1 (centres undefined) | inconclusive: 29.1 µM [inhibitor, single point] |  |
| CCN1CCC(N(Cc2cccc(OC)c2)C(=O)Nc2ccc(C)cc2Cl)CC1 | inconclusive: 10.3 µM [inhibitor, single point] |  |
| CCCNC(=O)C(Cc1ccccc1)NC(=O)c1ccccc1 (centres undefined) | inactive |  |
| CCCN(CCc1ccccc1)C1CCc2c(O)cccc2C1 (centres undefined) | inconclusive: 18.4 µM [inhibitor, single point] and inconclusive: 25.9 µM [inhibitor, single point] |  |
| O=C1/C(=C/c2ccc(O)c(O)c2)SC(=S)N1Nc1ccccc1 | inconclusive: 29.1 µM [inhibitor, single point] |  |
| Cc1ccc(S(=O)(=O)NNC(=O)Nc2ccc(Cl)c(Cl)c2)cc1 | inconclusive: 29.1 µM [inhibitor, single point] |  |
| FC(F)(F)c1cc(CCN2C(=S)NC[C@@H]2Cc2ccccc2)cc(C(F)(F)F)c1 | inconclusive: 29.1 µM [inhibitor, single point] |  |
| COc1ccc(OC)c(S(=O)(=O)N2CCN(CC(O)COc3ccccc3)CC2)c1 (centres undefined) | inactive |  |
| CCCCOc1ccc(C(=O)N/C(=C\c2cccc([N+](=O)[O-])c2)C(=O)OCCC)cc1 | inactive |  |
| Cc1ccc(C(=O)Nc2ccncc2)c(Cl)c1 | inconclusive: 9.2 µM [inhibitor, partial curve, poor fit] |  |
| Cc1ccc(S(=O)(=O)CCSc2nc(C)cc(C)c2C#N)cc1 | inconclusive: 25.9 µM [inhibitor, single point] |  |
| O=C(NCCN1CCOCC1)c1ccc(/C=C2\Sc3ccccc3N(Cc3ccc(F)cc3)C2=O)cc1 | inconclusive: 29.1 µM [inhibitor, single point] |  |
| CCNc1nc(NCC)nc(N/N=C/c2ccc(N(C)C)cc2)n1 | inconclusive: 29.1 µM [inhibitor, single point] |  |
| Cc1ccc(C)c(NC(=O)CCCn2nc(C)c3sc4ccccc4c3c2=O)c1 | inactive |  |
| C=CCN(Cc1cccs1)C(=O)CN1CCN(S(=O)(=O)c2ccc3c(c2)OCCCO3)CC1 | inconclusive: 29.1 µM [inhibitor, single point] |  |
| COc1cccc(C(=O)Nc2nnc(-c3cccs3)o2)c1 | active: 16.4 µM |  |

| Compound | Potency | activity change, negative = growth inhibition |
| --- | --- | --- |
| COc1cnc(-c2ccccn2)nc1Sc1ccc(C)cc1 | active: 5.17 µM |  |
| O=C(CN(C1CCCCC1)S(=O)(=O)c1ccccc1)NCc1ccco1 | inconclusive: 6.51 µM [inhibitor, single point] |  |
| Cc1cccc(NC(=O)C2C(c3ccccc3)C2(Cl)Cl)c1C (centres undefined) | inconclusive: 29.1 µM [inhibitor, single point] |  |
| O=C(COc1ccc(S(=O)(=O)NC2CCCC2)cc1)N1CCCCCC1 | inactive |  |
| COc1ccc(S(=O)(=O)N2CCCCC2)cc1NC(=O)CCc1cc(OC)c(OC)c(OC)c1 | inactive |  |
| CCC1OC23CCCCC2C(C#N)(C(=N)O3)C1(C#N)C#N (centres undefined) | inconclusive: 18.4 µM [inhibitor, single point] |  |
| Cn1nc(C(=O)Nc2ccc(S(=O)(=O)NCc3ccco3)cc2)c2ccccc2c1=O | inconclusive: 29.1 µM [inhibitor, single point] |  |
| Cc1nc2ccc(NC(=O)COc3ccccc3)cc2s1 | inactive |  |
| CCCN(CCC)CCNC(=O)c1cc2c(-c3ccccc3F)nn(C)c2s1 | inconclusive: 25.9 µM [inhibitor, single point] and inconclusive: 29.1 µM [inhibitor, single point] |  |
| COC(=O)C1CCCCN1Cc1ccc2c(c1)CN(Cc1cn[nH]c1-c1ccc(F)cc1)CCO2 (centres undefined) |  | inactive: 1.16% [at 9.04 µM] |
| COc1cc(C(C)=O)ccc1Oc1cc(NN2CCCCC2)c([N+](=O)[O-])cc1[N+](=O)[O-] | active: 23.1 µM |  |
| NC(N)=N/N=C/c1ccc(Cl)c(Cl)c1 | active: 13 µM |  |
| Cc1nc(C#N)nc(Oc2ccccc2)c1Cl | inactive |  |
| Cn1cccc1Cc1nnc(SCC(=O)Nc2ccccc2)n1-c1ccc(F)cc1 | inconclusive: 18.4 µM [inhibitor, single point] |  |
| COc1cc2sc3cc(NCCCN4CCOCC4)ccc3c(=O)c2cc1OC | inconclusive: 29.1 µM [inhibitor, single point] |  |
| COc1ccc(NC(=O)CN(Cc2ccccc2)S(=O)(=O)c2ccc3nc(C)sc3c2)cc1 | inconclusive: 20.6 µM [inhibitor, single point] |  |
| O=C(Nc1cc(C(F)(F)F)ccc1N1CCOCC1)c1ccc2ccccc2n1 | inconclusive: 20.6 µM [inhibitor, single point] |  |
| COc1cc(CN(C(=O)COc2ccc(C)c(C)c2)c2ccccn2)cc(OC)c1OC | active: 7.31 µM |  |
| Cc1cc(C)n(-c2nc3ccccc3nc2N2CCN(C(=O)c3ccccc3)CC2)n1 | inactive |  |
| Cc1ccc(-c2nc3ccc(Cl)cn3c2Cc2ccccc2)cc1 | active: 20.6 µM |  |
| CC(C)(C)n1nc(-c2ccc(F)cc2)c2c(N)ncnc21 | active: 23.1 µM |  |
| COc1ccccc1N1CCN(C(=O)c2oc3cc(C)cc(C)c3c2C)CC1 | inconclusive: 29.1 µM [inhibitor, single point] |  |
| COc1cccc(Cn2c(=O)cnc3cnc(Oc4cccc(Cl)c4)nc32)c1 | inconclusive: 25.9 µM [inhibitor, single point] |  |

| Compound | Potency | activity change, negative = growth inhibition |
| --- | --- | --- |
| O=C(c1ccc(OC2CCN(Cc3ccc(C(F)(F)F)cc3)CC2)cc1)N1CCCCC1 | inconclusive: 18.4 µM [inhibitor, single point] |  |
| O=C(NNC(=O)c1ccc2nonc2c1)Nc1ccc(Cl)cc1 | inactive |  |
| CCOC(=O)N1CCc2c(sc(NC(=O)C3=COCCO3)c2C(N)=O)C1 | inconclusive: 18.4 µM [inhibitor, single point] |  |
| CN(CC(=O)Nc1cccc(F)c1)C(=O)CCc1nc2sc3c(c2c(=O)[nH]1)CCCC3 | inconclusive: 20.6 µM [inhibitor, single point] |  |
| COc1ccccc1N1CCN(C(=S)Nc2ccc3nc(N4CCOCC4)cc(C)c3c2)CC1 | inconclusive: 29.1 µM [inhibitor, single point] |  |
| Cc1ccc(S(=O)(=O)C(CNC(=O)C(C)C)c2cccs2)cc1 (centres undefined) | inactive |  |
| COc1cc(CNCCO)cc(Br)c1OCc1ccccc1Cl | active: 23.1 µM |  |
| CCCCCC1CCC(c2ccc(/C(N)=N/O)cc2)CC1 (centres undefined) | active: 14.6 µM |  |
| Fc1ccccc1NC(=S)NCCc1cccc(Cl)c1 | active: 8.2 µM |  |
| CCCCN(CC)CCCNC(=O)c1cc2c(-c3ccc(OC)c(OC)c3)nn(C)c2s1 | inconclusive: 29.1 µM [inhibitor, single point] |  |
| Cc1cc2ccccc2n2c(SCC(=O)NCc3cccs3)nnc12 | inconclusive: 20.6 µM [inhibitor, single point] |  |
| Cc1ccc2nc3c(cc(C(N)=S)c(=N)n3CCCOC(C)C)c(=O)n2c1 | active: 16.4 µM |  |
| CCCCCCn1c(=O)n2n(c1=O)[C@@H]1CN(S(=O)(=O)c3ccc(C)cc3)C[C@]1(O)[C@@H](OC(=O)NCC1CCCCC1)C2 | inconclusive: 20.6 µM [inhibitor, single point] |  |
| CCN(CC)CCNC(=O)Cn1ncc2c([nH]c3ccccc32)c1=O | inactive |  |
| COc1ccccc1C(=O)Oc1cc(N)n(S(=O)(=O)c2ccccc2)n1 | inactive |  |
| CCC(c1nc2ccccc2[nH]1)n1c(=O)c(-c2ccccc2)nc2ccccc21 (centres undefined) | inconclusive: 29.1 µM [inhibitor, single point] |  |
| Cc1ccc(NC(=O)c2cccn2-c2nnc(N3CCCCC3)s2)cc1Cl | inconclusive: 29.1 µM [inhibitor, single point] |  |
| Cc1cccc2cc(/C=C/C(=O)c3ccco3)c(Cl)nc12 | active: 4.61 µM |  |
| Cn1nc(C(=O)N2CCN(c3ccccc3F)CC2)c2c1-c1ccccc1SC2 | inconclusive: 18.4 µM [inhibitor, single point] |  |
| Clc1ccc(CSc2nnc(-c3cccnc3)o2)cc1 | inconclusive: 13 µM [inhibitor, partial curve] |  |
| O=C(NCc1ccc(F)cc1)c1ccc(NC(=O)N2CC3CCCN3c3ccccc32)cc1 (centres undefined) | active: 16.4 µM |  |
| Cc1cccn2c(=O)c3cc(C#N)c(=O)n(CCCN4CCOCC4)c3nc12 | inconclusive: 20.6 µM [inhibitor, single point] |  |
| COc1ccccc1N(C)C(=O)c1cc(S(=O)(=O)N2CCCC2)cn1C | inactive |  |
